Test results from PubChem BioAssay AID504332 (National Center for Advancing Translational Sciences (NCATS), 2011).
Out of some 350,000 compounds screened, about 31,000 (8.9%) were called active. This list was built around the results that the source calls inconclusive (neither active nor inactive); the mix of calls is not that of the screen. Calls come from the whole dose curve; as a rule, active = well fitted inhibition curve with a large enough effect; inconclusive = small, poorly fitted or top-dose-only effect; inactive = no such curve, though single readings can be large or run the other way. A potency beside an inconclusive call is a rough fit, not a confirmed value.
% is set by controls: 0 for no effect and ±100 for the full control effect; potency is the fitted concentration of half-maximal effect; tags give direction and shape of the fitted curve.
Note: nearly all actives have a fitted effect of over 75% in size.

What follows are molecules tested against Histone-lysine N-methyltransferase EHMT2 (Homo sapiens) (UniProt Q96KQ7) (assay: qHTS Assay for Inhibitors of Histone Lysine Methyltransferase G9a). Conditions: G9a H3K9 monomethylation, AlphaScreen, 2 h; activity, negative = inhibition: at 59 µM (top of the series) unless noted.
UniProt Q96KQ7, sequence (Q96KQ7 whole entry, looked up): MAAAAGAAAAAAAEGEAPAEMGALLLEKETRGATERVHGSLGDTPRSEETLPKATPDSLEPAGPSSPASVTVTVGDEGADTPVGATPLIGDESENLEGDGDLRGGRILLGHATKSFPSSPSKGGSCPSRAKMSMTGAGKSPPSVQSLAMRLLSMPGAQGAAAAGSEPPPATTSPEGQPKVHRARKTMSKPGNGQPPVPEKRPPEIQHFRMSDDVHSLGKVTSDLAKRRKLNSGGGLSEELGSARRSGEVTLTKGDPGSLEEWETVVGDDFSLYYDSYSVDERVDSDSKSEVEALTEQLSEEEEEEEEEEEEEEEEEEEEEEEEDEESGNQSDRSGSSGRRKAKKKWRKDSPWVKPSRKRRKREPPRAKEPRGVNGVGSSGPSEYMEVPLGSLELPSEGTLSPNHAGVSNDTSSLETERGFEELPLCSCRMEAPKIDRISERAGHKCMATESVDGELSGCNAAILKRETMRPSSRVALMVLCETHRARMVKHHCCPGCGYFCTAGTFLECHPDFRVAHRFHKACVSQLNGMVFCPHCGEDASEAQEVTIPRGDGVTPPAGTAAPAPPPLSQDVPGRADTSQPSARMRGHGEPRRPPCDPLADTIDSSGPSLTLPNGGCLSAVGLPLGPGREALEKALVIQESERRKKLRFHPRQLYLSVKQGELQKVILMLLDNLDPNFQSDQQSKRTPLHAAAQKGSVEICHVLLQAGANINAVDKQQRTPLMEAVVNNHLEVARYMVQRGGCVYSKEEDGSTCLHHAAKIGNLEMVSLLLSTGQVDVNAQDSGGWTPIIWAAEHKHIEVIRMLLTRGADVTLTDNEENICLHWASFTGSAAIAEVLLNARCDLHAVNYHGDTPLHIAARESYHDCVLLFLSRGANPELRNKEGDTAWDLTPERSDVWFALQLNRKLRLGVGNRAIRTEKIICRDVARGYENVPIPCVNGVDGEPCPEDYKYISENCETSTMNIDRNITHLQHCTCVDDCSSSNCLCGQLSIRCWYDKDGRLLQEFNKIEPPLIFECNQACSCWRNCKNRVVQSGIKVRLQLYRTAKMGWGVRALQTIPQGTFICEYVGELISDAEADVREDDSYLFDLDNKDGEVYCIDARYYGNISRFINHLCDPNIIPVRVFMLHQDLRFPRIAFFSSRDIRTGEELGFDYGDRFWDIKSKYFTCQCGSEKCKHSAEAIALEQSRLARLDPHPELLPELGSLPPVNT
Outline: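 Using a bead-based AlphaScreen, monomethylated H3K9 product from 2 h room-temperature reactions (G9a 20 nM, peptide 500 nM, SAM 20 uM) was detected with 0.5 ug/mL rabbit anti-H3K9me1 antibody.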
In the case of `N#CCC(=O)N/N=C/c1ccc(SCC(=O)Nc2ccccc2)o1`, the Potency is reported as inconclusive: 79.4 µM [inhibitor, partial curve, poor fit]. In the case of `COc1ccc(Nc2ccc(N3C(=O)CCCC3=O)cc2[N+](=O)[O-])cc1OC`, the Potency is reported as inconclusive: 89.1 µM [inhibitor, single point]. For `CC(=O)C1=C(C)NC(SCC(=O)c2ccccc2)=C(C#N)C1CC(C)C` (stereo unspecified), the Potency was inconclusive: 0.794 µM [inhibitor, partial curve, poor fit]. With `N#Cc1c(NC(=S)NC(=O)c2ccccc2)sc2c1CCN(CCc1ccccc1)C2` the Potency was active: 39.8 µM. `Brc1ccc(-c2cn3cccnc3n2)cc1` was tested, and the Potency was inconclusive: 31.6 µM [inhibitor, partial curve, poor fit]. In the case of `Oc1c(CN2CCOCC2)ccc2ccccc12`, the Potency is reported as active: 2.24 µM. In the case of `COc1cccc(O)c1CN1CCC(Oc2ccc(C(=O)NCc3ccccn3)cc2)CC1`, the “activity, negative = inhibition” value is reported as inactive: -0.18% [at 102 µM]. For `Cc1[nH][nH]c(=O)c1C(c1cc([N+](=O)[O-])ccc1O)c1c(C)[nH][nH]c1=O`, the “activity, negative = inhibition” value was inactive: 21.6% [at 102 µM]. `CC(=O)C1=C(C)N(CC2CC2)C(=O)N[C@H]1c1cccs1` was tested, and the “activity, negative = inhibition” value was inactive: 17.9% [at 102 µM]. For `CCOc1cc(C2Nc3ccccc3NC3=C2C(=O)CC(C)(C)C3)ccc1O` (stereo unspecified), the Potency was inconclusive: 50.1 µM [inhibitor, partial curve, poor fit]. `O=C(NC(Cc1ccccc1)C(=O)O)/C(=C/c1cccc(Br)c1)NC(=O)c1ccco1` (stereo unspecified) was tested, and the Potency was inconclusive: 89.1 µM [inhibitor, single point]. `Cc1ccc(-c2nnc(SCC(=O)Nc3sc(C)c(C)c3C#N)n2C)cc1` was tested, and the Potency was inconclusive: 39.8 µM [inhibitor, single point]. In the case of `N#CCCN(C(=O)COC(=O)CCc1nc2ccccc2c(=O)[nH]1)c1ccc(F)cc1`, the “activity, negative = inhibition” value is reported as inactive: -9.17%. In the case of `COc1ccc(NC(=O)Cn2cnc3sc(C)c(S(=O)(=O)N4CCN(C)CC4)c3c2=O)cc1Cl`, the “activity, negative = inhibition” value is reported as inactive: 6.02%. In the case of `Cc1ccc(C(=O)NCCCN2CCOCC2)o1`, the “activity, negative = inhibition” value is reported as inactive: 4.6%. For `C=CCN1C(=O)/C(=C2\SC(N3CCOCC3)=NC2=O)c2cc(Br)ccc21`, the activity, negative = inhibition was inconclusive: -63.4% [inhibitor]. For `CCCSc1ncc(Cl)c(C(=O)N(Cc2ccc(N(C)C)cc2)C2CCS(=O)(=O)C2)n1` (stereo unspecified), the Potency was inconclusive: 12.6 µM [inhibitor, partial curve, poor fit]. In the case of `COCCN(C(=O)COC(=O)c1cc2c(s1)CCC2)c1c(N)n(Cc2ccccc2)c(=O)[nH]c1=O`, the Potency is reported as active: 10 µM. For `COc1cc(NC(=S)N(C)C)c(OC)cc1Cl`, the Potency was inconclusive: 89.1 µM [inhibitor, partial curve, poor fit]. With `N#Cc1nc(-c2ccc(COc3ccccc3)o2)oc1NCc1ccccc1` the Potency was inconclusive: 7.94 µM [inhibitor, full curve]. For `CC(=O)c1c(C)[nH]c(C(=O)OCC(=O)N(C)c2c(N)n(Cc3ccccc3)c(=O)[nH]c2=O)c1C`, the “activity, negative = inhibition” value was inactive: -18.8%. For `CN1CCCC2(CCN(C(=O)c3cc(C(F)(F)F)cc(C(F)(F)F)c3)CC2)C1`, the activity, negative = inhibition was inactive: -6.4% [at 12.7 µM]. For `O=C(COc1ccc(Nc2ccccc2)cc1)Nc1ccncc1`, the Potency was active: 44.7 µM. For `O=C(CN1CCN(c2ccc(O)cc2)CC1)Nc1ccc(SC(F)F)cc1`, the Potency was active: 2.24 µM. `O=[N+]([O-])c1cc(/C=N/N2CCN(C3c4ccccc4-c4ccccc43)CC2)ccc1Cl` was tested, and the Potency was inconclusive: 89.1 µM [inhibitor, single point]. With `C=CC[n+]1ccc2ccccc2c1C` the “activity, negative = inhibition” value was inactive: -36.8% [at 102 µM]. With `COc1cc(C2C(C#N)=C(N)N(N(C)C)C3=C2C(=O)CCC3)ccc1O` (stereo unspecified) the Potency was inconclusive: 79.4 µM [inhibitor, single point]. In the case of `CN(c1ccc(C(=O)NCC2CCCO2)cc1)S(C)(=O)=O` (stereo unspecified), the Potency is reported as inconclusive: 89.1 µM [inhibitor, single point]. In the case of `CCOc1ccccc1NC(=O)CSc1nccn1-c1ccccc1`, the activity, negative = inhibition is reported as inconclusive: -80.2% [inhibitor]. With `N#CC(C#N)=C1C=CC=CN1/C(=C\c1ccco1)C(=O)c1ccccc1` the Potency was active: 17.8 µM. In the case of `COc1ccccc1N1CCN(/N=C/c2cc([N+](=O)[O-])ccc2Cl)CC1`, the Potency is reported as inconclusive: 28.2 µM [inhibitor, full curve, poor fit]. With `CN1CCN(c2nc(-c3cc4ccccc4o3)cs2)CC1` the Potency was inconclusive: 10 µM [inhibitor, partial curve, poor fit]. With `NC(=O)c1c(NC(=O)c2ccc(N3C(=O)CCC3=O)cc2)sc2c1CCCC2` the Potency was inconclusive: 28.2 µM [inhibitor, single point]. `Cc1cccc(OC(=O)c2cc(-c3ccc4c(c3)OCCO4)on2)c1` was tested, and the “activity, negative = inhibition” value was inactive: -3.34%. `COc1ccc(C(=O)NCc2nnc(SCC(=O)N3CCCc4ccccc43)o2)cc1OC` was tested, and the Potency was inconclusive: 89.1 µM [inhibitor, single point]. `Cc1nc2ccc(S(=O)(=O)Nc3cccc(-c4nc5cccnc5s4)c3C)cc2s1` was tested, and the Potency was active: 50.1 µM. For `N#Cc1c(NC(=O)CSc2nc(N)cc(=O)[nH]2)sc2c1CCCCCC2`, the Potency was active: 44.7 µM. For `CCOC(=O)c1ccc[n+](CC(=O)Nc2ccccc2OC(F)F)c1`, the Potency was inconclusive: 39.8 µM [inhibitor, partial curve, poor fit]. `O=S(=O)(NC1CCCCC1)c1ccc(Br)s1` was tested, and the “activity, negative = inhibition” value was inactive: -4.86% [at 102 µM]. In the case of `C=CCN(C(=O)Nc1ccc(Cl)cc1)C1CC(=O)N(c2ccc(OC)cc2)C1=O` (stereo unspecified), the Potency is reported as inconclusive: 50.1 µM [inhibitor, partial curve]. In the case of `CCN1CCCC1CN=Cc1c(O)n(-c2ccccc2)c(=O)c2ccccc12` (stereo unspecified), the activity, negative = inhibition is reported as inconclusive: -69.2% [inhibitor]. With `Cc1ccc(NC(=O)/C(C#N)=C/c2cc(C)n(-c3ccc(N4CCOCC4)c([N+](=O)[O-])c3)c2C)c(C)c1` the “activity, negative = inhibition” value was inactive: -8.07% [at 102 µM]. `Cc1ccsc1/C=N/n1c(COc2ccccc2)n[nH]c1=S` was tested, and the Potency was active: 0.891 µM. For `O=C(O)CSCC(=O)Nc1ccc(-c2nc3ccccc3s2)cc1`, the Potency was active: 44.7 µM. For `CC(C(=O)Nc1ccc(S(N)(=O)=O)cc1)N1CCc2ccccc21` (stereo unspecified), the Potency was active: 79.4 µM. In the case of `COCCN=C1N[C@@H](c2ccccc2)C(C(=O)OC)=C(C)N1Cc1ccccc1`, the Potency is reported as inconclusive: 50.1 µM [inhibitor, partial curve, poor fit].
